# Assay results taken from ChEMBL document CHEMBL4888484, “Replenishing the malaria drug discovery pipeline: Screening and hit evaluation of the MMV Hit Generation Library 1 (HGL1) against asexual blood stage Plasmodium falciparum ,using a nano luciferase reporter read-out” (2022).
# The whole screen tested about 4,800 compounds, of which about 410 (8.5%) showed an effect of 50% or more. Some of the results follow.
# System: Plasmodium falciparum
# Assay: Confirmatory screen in NF54 pLDH assay, in single point, at 2uM, 72h
# Format: functional, Erythrocyte
# Settings: timepoint 72 hour
row,Compound,% Inhibition [%]
1,O=C(c1cccs1)N1CCN(C2CCCCC2)CC1,-22
2,O=C(Nc1ccc(N2CCCCCC2)cc1C(=O)O)c1ccc(Cl)cc1,9
3,Cc1nc(N2CCOCC2)nc2c1CCCC2,6
4,CN(C)c1ccc(-c2nc3[nH]cnn3c2Nc2ccccc2)cc1,10
5,C[C@H](NCCc1ccccc1)c1cccc(COc2nn3c(C(F)(F)F)nnc3c3ccccc23)n1,7
6,Cc1cnc(CNC(=O)Nc2nnc3ccccn23)s1,2
7,Cc1nc2c(sc(=S)n2-c2ccc(Cl)c(Cl)c2)c(=O)[nH]1,2
8,N#CCCN(C(=O)COC(=O)c1ccc(S(=O)(=O)N2CCOCC2)cc1)c1ccccc1,11
9,CCc1cccc(NC(=O)C2CCN(c3c(C)n(-c4ccccc4)c(=O)n(CC(C)C)c3=O)CC2)c1,5
10,Cn1c(-c2ccc(Cl)c(Cl)c2)c[n+](CC(=O)c2ccc(F)cc2)c1N,-12
11,COc1ccc(CNCCC2C(C)CN(C)C(C)C2Cc2ccccc2)cc1 (stereo unspecified),66
12,CC(C)(NCCc1c[nH]c2ccccc12)c1nnnn1Cc1cccnc1,14
13,CS(=O)(=O)N1CC[C@H](CC(=O)NCCCc2ccccc2)C1,8
14,O=C(O)C[C@@H]1CCN(CC2CC2)C[C@@H]1Cc1nc2ccccc2[nH]1,6
15,CN(C)c1ccc(C(=O)N[C@@]2(C)CCS(=O)(=O)C2)cc1,-2
16,CC(C)N1CCC2(CC1)N=C(c1ccc3c(c1)OCO3)C[C@@H](c1cc(Cl)ccc1O)N2,26
17,CC(C)(C)c1ccc(-c2cc(C[C@H]3CNCC[C@H]3CC(=O)NCCN3CCOCC3)no2)cc1,20
18,CC(=O)c1ccc(N2CCN(c3nccn4nc(-c5ccccc5C)cc34)CC2)cc1,-10
19,O=C1CCc2[nH]c(=O)n(C3CCCCC3)c(=O)c21,11
20,CCN1C(=O)[C@]2(NC3(CCCCC3)C(=O)N2CC)c2ccccc21,-11
21,CCn1cc(-c2nc(-c3ccccc3C)no2)c(=O)c2cc(F)c(N3CCCCC3)cc21,42
22,Cc1ccc(OCn2cc(NS(=O)(=O)c3cnn(C)c3C)cn2)c(C)c1,5
23,C=CCNCc1ccc(Br)cc1,-20
24,O=C(NCC1CC2CCC1C2)N1CCOC(Cn2cccn2)C1 (stereo unspecified),-10
25,COc1cccc(N2CCN(C(=O)c3nn(-c4ccc(C)cc4)c(OC)cc3=O)CC2)c1,4
26,c1ccc(CNc2ncnc3c2cnn3-c2ccccn2)cc1,7

row,Compound,% Inhibition [%]
1,Nc1ncnc(NCc2cccnc2OCC(F)F)c1Cl,8
2,CC1CN(C(=O)C(Cc2ccccc2)NC(=O)c2ccccc2)CC(C)O1 (stereo unspecified),3
3,CC(C)C(=O)N1N=C(C(C)C)C[C@]1(O)C(F)(F)F,13
4,Cc1nnc(O)c(CNC(=O)COC2CCCC(C)C2)c1C (stereo unspecified),-4
5,O=C(N[C@H]1C[C@@H]2C[C@H]1CN2C(=O)c1cccc(C(F)(F)F)c1)c1ccccc1,10
6,O=C(Cn1c(=O)n(C2CC2)c(=O)c2snc(-c3ccccn3)c21)NCc1ccccc1,13
7,CC[C@@H](CO)Nc1ncc2cc3ccccc3nc2c1C#N,5
8,CCc1cc(C(=O)N2CCC(C)CC2)c2c(C3CC3)nn(-c3ccc(F)cc3)c2n1,14
9,O=C(Cn1nnc2c1CCCC2)NCc1ccc2cc[nH]c2n1,12
10,Cc1cc(C)cc(-n2c(=O)c3sccc3n(CC(=O)N[C@@H](C)CCc3ccccc3)c2=O)c1,-8
11,Cc1ccc(C)c(-n2c(=O)c3sccc3n(CC(=O)N3CC(C)CC(C)C3)c2=O)c1 (stereo unspecified),-6
12,COc1cc2ncc3c(-c4ccc(C)c(C)c4)n[nH]c3c2cc1OC,40
13,O=C1Nc2ccc(-c3ccccc3)cc2[C@@]1(O)C(F)(F)F,9
14,Cc1ccc(CNC(=O)c2csnn2)n1C,6
15,Cc1cc2ncn(CN3CC[C@@H](NC(=O)OC(C)(C)C)C3)c2cc1C,-7
16,C[C@H](O)CNCc1ccc(Cl)cc1Cl,1
17,CCn1cc(C)c(C(=O)O)c1CC(=O)NCc1ccc(F)cc1,-24
18,COc1cccc(-c2cc(C(=O)N3CCCN(C(=O)c4cc(-c5cccc(OC)c5)nc5ccccc45)CC3)c3ccccc3n2)c1,-26
19,CCC(NC(=O)c1c[nH]c(C)cc1=O)C(O)c1ccccc1F (stereo unspecified),10
20,Cc1ccc(Oc2ccccc2CNC(=O)[C@@H]2CCC(=O)N2)cc1,-20
21,CCC1CCCC(NS(=O)(=O)CCC(C)(C)C)C1 (stereo unspecified),-12
22,CC1CCC(N(CC(=O)NC(N)=O)C2CC2)CC1 (stereo unspecified),9
23,Cc1ccsc1-c1noc([C@@H]2COCCN2C)n1,0
24,CNc1c(-n2cc(C(=O)OC)c(C(=O)OC)c2C#N)c(=O)n(C)c(=O)n1C,-17
25,CC(N=C1NC(=NC(C)c2ccccc2)c2ccccc21)c1ccccc1 (stereo unspecified),48
26,CCn1ccc(CN(C)C(=O)[C@H]2CCCN(S(=O)(=O)c3cnn(C)c3C)C2)n1,-4

row,Compound,% Inhibition [%]
1,Cc1nc2cccnc2n1-c1cc(C(=O)NCC[C@H](C)N2CCCC2)ccc1Cl,8
2,C[C@H](c1ccccc1)N1C(=O)[C@@H]2CN(C(=O)CC(C)(C)C)CCN2C1=O,-13
3,Cc1nnc(NC(=O)c2ccc3n[nH]c(=O)n3c2)s1,-22
4,Cn1c(CN2CCOC[C@@]23CCOC3)nnc1C1CC1,13
5,O=C(Nc1cc(C(F)(F)F)ccc1Cl)C1CCC(N2C(=O)c3cc(Cl)c(Cl)cc3C2=O)CC1 (stereo unspecified),-6
6,CC(C)(C)c1ccc(C(=O)C(=O)NC[C@H]2CCCO2)cc1,-15
7,Cc1ccc2c(c1)ncc1c(-c3ccccc3)nn(-c3ccc(F)cc3)c12,3
8,CC(C)c1cc(CNC(=O)N2CCCC[C@H]2c2cccc(F)c2)no1,6
9,Cn1nc(C2CC2)c2c(C(F)(F)F)cc(-c3ccco3)nc21,10
10,Cc1nc(Cn2nnc(NC(=O)c3cccc(F)c3)c2C)no1,8
11,Cc1nc2cccnc2n1-c1cc(C(=O)NCc2ccccc2Cl)ccc1Cl,9
12,CCc1ccc(-c2cc3n(n2)C[C@@](C)(C(=O)NC2CCCCC2)N(c2cc(C)cc(C)c2)C3=O)cc1,58
13,FC(F)(F)c1cnc(C[C@@H]2NCCc3ccccc32)c(Cl)c1,11
14,O=C(CCCCC(=O)n1nnc2ccccc21)n1nnc2ccccc21,-15
15,CCC(=O)Nc1ccc(-n2cnc(C(=O)NCc3ccco3)c2)nc1,-15
16,COC[C@H](O)CNC(=O)c1cccn1C1CC1,12
17,CCOc1nc(C)nc2cc(-c3ccccc3)n(Cc3ccccc3)c12,13
18,Cc1noc(C)c1NC(=O)CCS(=O)(=O)c1ccc2ccccc2c1,4
19,Cn1c(C(=O)Nc2ccc(S(N)(=O)=O)cc2)cc2occc21,-18
20,Cc1cc(C)cc(NC(=O)Cc2nnc3ccc(C(=O)Nc4ccccc4)cn23)c1,8
21,Cn1cc(-c2noc(Cc3c(F)cccc3Cl)n2)ccc1=O,11
22,COc1ccc2cc3n(c2c1)C[C@](C(=O)NC1CCCCCC1)(c1ccccc1)N(Cc1cccc(Br)c1)C3=O,10
23,CC(C)CC(=O)N1CC[C@H](CC(=O)NCc2ccccc2)C1,12
24,COC(=O)c1ccc(N(Cc2ccccc2O)c2ncc(C(F)(F)F)cc2Cl)c(F)c1,-19
25,CCOc1ccc([C@@H](Nc2nc(C)cc(C)n2)c2cc(C)sc2NC(=O)c2ccccc2)cc1,8
26,c1cc(CN2CCC3(CC2)OCCO3)c2c(c1)OCCO2,9

row,Compound,% Inhibition [%]
1,Cc1csc(NC(=O)NCCc2cc(F)cc3c2OCOC3)n1,-14
2,CCOC(=O)CC1(S(=O)(=O)Nc2cccc3ccccc23)CC1,0
3,COc1cccc2nc(C[C@H]3CN(CC(C)C)CC[C@H]3CC(=O)O)[nH]c12,-7
4,CC(=O)c1nc2cc(F)c(N3CCOCC3)cc2nc1C,-13
5,CCOc1ccc2c(n1)CCN(C(=O)c1ccc(OC)cc1)C2,-5
6,CCn1ccc([C@H](C)NC(=O)c2cc(C)c(C)s2)n1,-4
7,Cc1ccc(NC(=O)N2CCCN(c3ccc(NC(=O)c4cccs4)cc3C(=O)NCc3ccc(F)cc3)CC2)cc1,21
8,O=C(NC1CCCC1)c1n[nH]c(=O)c2ccccc12,7
9,Cc1cccc(NC(=O)CCC(=O)OCC(F)(F)F)c1C,-1
10,CCN(CC)[C@@H](CNC(=O)CCc1c(C)nn(C)c1C)c1ccco1,5
11,O=C(C[C@H]1CCC(=O)N(CC2CC2)CC1)Nc1ccccc1F,3
12,CCN(CC)c1nc(Nc2ccc(Cl)c(Cl)c2)nc(Nc2cc(C)ccc2C)n1,8
13,O=C(COc1ccc(F)cc1)N1CCc2nc(OCC3CC3)ccc2C1,13
14,Cc1ccc(NC(=O)c2ccc3c(-c4ccccc4)onc3c2)cc1,-17
15,O=C(NCCc1nnc[nH]1)C1(Cc2ccccc2)CC2CCC1C2 (stereo unspecified),-5
16,COc1ccc(C(=O)Nc2cnccc2-n2nc(C)cc2C)cc1,0
17,COC[C@H](NC(=O)c1cccc(F)c1Cl)C(N)=O,-6
18,CN(C(=O)Cn1c(=O)n(-c2cc(F)cc(F)c2)c(=O)c2sccc21)c1ccccc1,9
19,Cc1cccc(CC(=O)N[C@@H](C)CCC(=O)O)c1,11
20,CCOC(=O)C1CCN(c2cc3c(cc2NC(=O)c2cccc(C)c2)n(C)c(=O)n3C)CC1,4
21,Cc1cc(C(=O)NC(C2CC2)C2CC2)c(C)o1,-21
22,Cc1nn(C)cc1-c1nnc(-c2ccccc2)o1,-6
23,COc1ccc(S(=O)(=O)N2C[C@@H]3CCCN3c3cc(C(F)(F)F)ccc32)cc1,15
